Assay [1] deals with T1, hexa-histidine-14-3-3γ (UniProt P61981).
T1 sequence: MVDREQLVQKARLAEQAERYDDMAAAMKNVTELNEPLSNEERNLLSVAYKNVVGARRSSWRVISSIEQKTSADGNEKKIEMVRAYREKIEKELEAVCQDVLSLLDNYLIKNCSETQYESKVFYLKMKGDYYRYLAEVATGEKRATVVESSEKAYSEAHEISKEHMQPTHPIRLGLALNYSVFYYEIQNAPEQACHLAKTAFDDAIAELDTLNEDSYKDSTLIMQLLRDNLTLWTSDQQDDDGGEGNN
Nature of the assay: pull-down; His pull-down: HEK293 cells co-transfected with His-14-3-3 and HIP-55, lysed after 48 h (1% NP-40, 137 mM NaCl, 60 mM imidazole, phosphatase inhibitors); nickel-charged resin 2 h at 4°C; washes with 500 mM NaCl; Western blot; in Figure 1C lysates with or without phosphatase inhibitors and in Figure 1D with or without Calyculin A for 0.5 h at room temperature. For orientation: In western blotting, separated proteins are transferred to a membrane and probed.

Chains of the proteins cited; added tags and fusions are not shown. Lines headed by an entry give the natural chain unless they say otherwise; changes in a name come on top.
UniProt Q9UJU6: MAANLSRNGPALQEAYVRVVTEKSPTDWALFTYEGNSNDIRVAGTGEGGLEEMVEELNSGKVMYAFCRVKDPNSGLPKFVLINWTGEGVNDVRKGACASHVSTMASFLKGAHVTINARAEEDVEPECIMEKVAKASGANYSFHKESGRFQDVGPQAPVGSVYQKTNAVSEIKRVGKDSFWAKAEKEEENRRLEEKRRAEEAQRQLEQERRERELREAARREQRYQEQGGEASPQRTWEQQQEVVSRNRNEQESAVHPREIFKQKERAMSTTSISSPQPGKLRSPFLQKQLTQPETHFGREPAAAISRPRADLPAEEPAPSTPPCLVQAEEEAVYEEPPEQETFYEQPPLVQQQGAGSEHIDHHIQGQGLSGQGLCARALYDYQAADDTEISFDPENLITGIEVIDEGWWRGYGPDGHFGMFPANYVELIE

In assay [2] the target is T2, His-14-3-3τ (UniProt P27348).
T2 sequence: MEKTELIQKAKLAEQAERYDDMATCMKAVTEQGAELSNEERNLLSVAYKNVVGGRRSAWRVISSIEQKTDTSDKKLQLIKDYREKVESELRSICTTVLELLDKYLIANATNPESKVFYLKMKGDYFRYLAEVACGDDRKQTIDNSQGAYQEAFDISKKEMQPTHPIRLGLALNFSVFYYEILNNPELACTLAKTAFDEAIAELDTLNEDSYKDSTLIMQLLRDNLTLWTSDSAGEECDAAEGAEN
The description is as above.

For assay [3], the target named is T3, hexa-histidine-14-3-3γ/K50E (UniProt P61981).
T3 sequence: T1 sequence with K50E
Described as above.

Assay [4] concerns the target T2, His-14-3-3τ. Nature of the assay: pull-down; R18 competition: HEK293 cells co-transfected with HIP-55 and 14-3-3τ, harvested after 36 h and incubated 30 min at 4°C with DMSO alone or R18; His pull-down; Western blot.

Positions count from the first letter of the chain named. No constants are given. Whether binding was seen depends on the method and setting. Binding seen in cells or lysates may run through a third protein. Some results given as binding are weak or reduced against the parent protein; the word gives no strength. Where a sequence is shown, tags or fusion partners need not be part of it.

“GST-HIP-55 wild type (from UniProt Q9UJU6 1-430)”: the binding entry in assay [1] is on record as “binds”; in assay [2], “binds”; in assay [3], “no binding”; in assay [4] it was “binds”.
On to “HIP-55/S269A/T291A (AA) (from UniProt Q9UJU6 1-430)”, for which the binding entry in assay [2] was “no binding”.
On to “HIP-55/S269D/T291D (DD) (from UniProt Q9UJU6 1-430)”, for which the binding result in assay [2] is “no binding”.

For the origin of these results see article PMC4102803.
